Data from PubChem BioAssay AID1346428 (National Center for Advancing Translational Sciences (NCATS), 2018).
About 1,200 (2.5%) of roughly 48,000 compounds were called active. Not shown: some 2% with an inconclusive outcome.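 The calls were made as follows: active = activation of at least 60% and not above a set upper limit (about 1 call in 100 departs from these limits); inconclusive = activation of 40% to 60%, or above that upper limit; inactive = activation under 40%.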 Some of the results follow.

Biological target: Probable G-protein coupled receptor 32 (Homo sapiens) (UniProt O75388)
Experiment: qHTS for Agonists of Human Resolvin D1 Receptor DRV1; also: 0% is about no effect
Settings: CHO-K1 GPR32 beta-arrestin PathHunter luminescence, 90 min; at 76.9 µM; active compounds read high; zero percent set by DMSO-only wells
Method in brief: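 Engineered CHO-K1 line co-expressing GPR32-ProLink and EA-beta-arrestin. Compound treatment lasted 90 min at 37 °C. Luminescence was recorded after 1 h with substrate at ambient temperature, relative to DMSO basal wells.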

UniProt O75388, sequence (O75388 whole entry, looked up): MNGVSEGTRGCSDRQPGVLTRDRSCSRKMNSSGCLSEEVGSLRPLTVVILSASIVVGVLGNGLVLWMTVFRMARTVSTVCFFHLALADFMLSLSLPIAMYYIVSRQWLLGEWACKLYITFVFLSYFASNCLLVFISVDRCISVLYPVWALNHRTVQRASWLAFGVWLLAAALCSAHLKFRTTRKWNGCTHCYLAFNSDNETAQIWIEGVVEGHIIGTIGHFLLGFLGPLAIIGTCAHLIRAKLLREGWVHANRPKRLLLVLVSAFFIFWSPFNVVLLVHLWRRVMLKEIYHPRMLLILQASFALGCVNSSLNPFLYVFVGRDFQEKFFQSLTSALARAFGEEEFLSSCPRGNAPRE

| Structure (SMILES) | activation |
| --- | --- |
| CCC(CC)C(=O)Nc1ccc(S(=O)(=O)N2CCC(c3nc4ccccc4s3)CC2)cc1 | inactive: 4.34% |
| FC(F)(F)c1cccc(Nc2nc3nonc3nc2Nc2ccc(Cl)cc2)c1 | inactive: -23.3% |
| COc1ccc(C)cc1NC(=O)CN(C)S(=O)(=O)c1ccc2c(c1)c(=O)n(C)c(=O)n2C | inactive: 5.98% |
| Cc1ccccc1NC(=O)c1c(C)oc2ccc(O)c(CN3CCCCCC3)c12 | inactive: -16.1% |
| CC(C)NC(=O)c1ccc(CSc2nc3ccncc3n2Cc2cccc(F)c2)cc1 | inactive: 22.1% |
| CCCn1cc(S(=O)(=O)c2ccc(C)c(C)c2)c(=O)c2cc(F)c(N3CCCCC3)cc21 | inactive: -4.99% |
| CCn1cc2nc(SCC(=O)Nc3ccc(OC)c(Cl)c3)n(Cc3ccc(OC)cc3)c(=O)c2n1 | inactive: -1.75% |
| CCOC(=O)c1ccc(NC(=O)CSc2nc(-c3ccc(OC)cc3)cc(C(F)(F)F)c2C#N)cc1 | inactive: 7.96% |
| Cc1ccc(Nc2ccc3cc(S(=O)(=O)N4CCCCC4)ccc3n2)cc1F | inactive: 5.64% |
| COc1ccc(-c2cc3nc(C)c(CCC(=O)NCc4ccccc4Cl)c(C)n3n2)c(OC)c1 | inactive: -4.64% |
| O=C(Cc1ccccc1)N(Cc1cccnc1)c1nc2c(Cl)cccc2s1 | inactive: -26.6% |
| COc1ccc(N(CC(=O)N2CCN(c3ccccc3)CC2)S(=O)(=O)c2c(C)nn(C)c2C)cc1 | inactive: 2.48% |
| O=C(CCC1CCCC1)N1CCc2c([nH]c3ccccc23)C1c1ccc(F)cc1 (stereo not drawn) | inactive: -40.2% |
| CC(=O)c1ccc(NC(=O)c2cn(-c3ccccc3)nc2-c2ccc(Br)cc2)cc1 | inactive: -0.309% |
| N#Cc1nc(COc2ccccc2Cl)oc1NCCc1ccccc1 | inactive: -34.3% |
| CCOc1ccc(NC(=O)NCCN2CCN(c3cccc(C)c3C)CC2)cc1 | inactive: 7.46% |
| CCc1cccc(C)c1NC(=O)C1CCN(S(=O)(=O)c2c(C)noc2/C=C/c2c(C)cc(C)cc2C)CC1 | inactive: -5.83% |
| CCc1nnc(SC(CC)C(=O)Nc2ccc(OC)c(Cl)c2)c2cc3occc3n12 (stereo not drawn) | inactive: -26.9% |
| COc1ccccc1NC(=O)c1c(C)cc(C)nc1SCC(=O)Nc1ccc(C)c(C)c1 | inactive: -32.2% |
| COc1cccc(-n2ccn(CC(=O)NCc3ccc(C)cc3)c(=O)c2=O)c1 | inactive: -0.585% |
| COc1ccccc1Nc1nc(-c2ccc(F)cc2)c2c(n1)-c1ccccc1OC2 | inactive: -3.06% |

| Structure (SMILES) | activation |
| --- | --- |
| Cc1ccc(CCNC(=O)CN(c2cc(C)cc(C)c2)S(=O)(=O)c2c(C)noc2C)cc1 | inactive: -13.2% |
| COc1ccccc1CNC(=O)CCCn1c(=O)c2ccccc2n(Cc2ccc(F)cc2)c1=O | inactive: -7.13% |
| CCOc1ccc(C2CC(=O)NC(NC(=O)c3cccc(Cl)c3)=N2)cc1 (stereo not drawn) | inactive: -3.23% |
| Cc1ccc(NC(=O)Nc2cccc(C)n2)cc1 | active: 64.5% |
| Cc1cc(C)c(NS(=O)(=O)c2ccc3c(c2)CC(C)N3C(=O)C2CCC2)c(C)c1 (stereo not drawn) | inactive: 11.8% |
| CN(C(=O)c1cc2c(Cl)nc3ccccc3c2s1)c1cccc(C(F)(F)F)c1 | inactive: -19.2% |
| COc1cccc(NC(=O)N(Cc2c[nH]c3ccccc23)C2CCCCCC2)c1 | inactive: -2.38% |
| CCn1c(C(=O)Nc2c(C)cccc2C)cc2sc(Cl)cc21 | inactive: -16.2% |
| O=C(Cn1nc(-c2ccccc2)c2c(c1=O)CCCC2)Nc1ccc(F)c(Cl)c1 | inactive: -21.2% |
| Cc1ccccc1NS(=O)(=O)c1ccc2[nH]cc(C(=O)NC3CCCCC3)c(=O)c2c1 | inactive: -9.34% |
| COc1cccc(-c2noc(COc3ccc(C(C)(C)C)cc3)n2)c1 | inactive: -5.73% |
| COc1ccccc1CNCCCCCCNCCCCCCCCNCCCCCCNCc1ccccc1OC | inactive: -13% |
| CCn1c(=O)c2cc(C(=O)NC3CCC(C)CC3)sc2c2ccccc21 (stereo not drawn) | inactive: -4.24% |
| Cc1ccc(NC(=O)c2oc3ccc(S(=O)(=O)N4CCCCCC4)cc3c2C)c(C)c1 | inactive: 0.894% |
| Cc1ccc(NC(=O)c2c(NC(=O)c3ccc(F)cc3)sc3c2CCCC3)cc1C | inactive: -9.27% |
| COc1ccc(OC)c(NC(=O)Cn2c(=O)n(-c3cccc(C)c3)c(=O)c3c2c2cc(C)ccc2n3C)c1 | inactive: 31.5% |
| COc1ccc(-n2c(C)nnc2SCc2nc(-c3ccc(OC)c(OC)c3)no2)cc1 | inactive: 5.49% |
| COc1ccc(NC(=O)c2cc3c(=O)n(Cc4cccs4)ccc3nc2C)cc1 | inactive: -11.6% |
| O=C(c1cc(-c2cccc(Cl)c2)on1)N1CCCCC1 | active: 65.7% |
| CCOC(=O)c1cc(OC(=O)c2cc(OC)c(OC)c(OC)c2)n(-c2ccccc2)n1 | inactive: 7.58% |
| CCOC(=O)c1c(C)oc2nc(C)nc(N3CCN(c4cc(Cl)ccc4C)CC3)c12 | inactive: 2.43% |

| Structure (SMILES) | activation |
| --- | --- |
| COc1cccc(CNC(=O)CCCn2nc(C)c3sc4ccccc4c3c2=O)c1 | inactive: -14.5% |
| CCc1ccccc1N(C)C(=O)Cn1cnc2sc(C)c(S(=O)(=O)N3CCC(C)CC3)c2c1=O | inactive: -9.22% |
| CCOc1ccc(-n2c(SCC(=O)Nc3cc(C)on3)nc3c([nH]c4ccccc43)c2=O)cc1 | inactive: -5.28% |
| Cc1cc(OCC(=O)Nc2c(C(=O)c3ccccc3)oc3ccccc23)cc(C)c1Cl | inactive: -15.6% |
| CC(C)CN(CCCNC(=O)c1cc(-c2cccs2)nc2ccccc12)CC(C)C | inactive: 2.87% |
| Cc1nn(C)c2c1c(-c1ccccc1)cc(=O)n2Cc1ccccc1C#N | inactive: 3.31% |
| CCOC(=O)C1CCCN(c2c(C(=O)c3ccc(OCC)cc3)cnc3ccccc23)C1 (stereo not drawn) | inactive: -17.5% |
| CCN1CCN(CCCNC(=O)c2cnn(-c3ccccc3Cl)c2C2CCN(C(=O)OC(C)(C)C)CC2)CC1 | inactive: -14.8% |
| Cc1cc(F)ccc1NC(=O)C1CCN(C(=O)c2cnn(-c3ccccc3)c2-n2cccc2)CC1 | inactive: -18.7% |
| CCCCc1nn2c(=O)cc(COC(=O)c3cccc(Cl)c3)nc2s1 | inactive: 0% |
| O=C(c1ccccc1)c1cn(Cc2ccc(F)cc2)c2ccccc2c1=O | inactive: -8.64% |
| Cc1cccc(C)c1NC(=O)Cn1nnc(C(=O)Nc2c(C)cccc2C)c1N | inactive: 19.4% |
| O=C(CCC1N=C2c3ccccc3N=C(SCc3cccc(F)c3)N2C1=O)NCCc1ccccc1 (stereo not drawn) | inactive: -7.08% |
| COC(=O)c1ccccc1NC(=O)c1ccc(-c2nc(COc3ccccc3)c(C)o2)cc1 | inactive: -5.19% |
| Cc1ccc(CNC(=O)CN2C(=O)CSc3c2c(C)nn3-c2ccccc2)cc1 | inactive: -7.22% |
| CCOC(=O)c1c(C)[nH]c(CCC(=O)NCc2cccc(C)c2)c1C | inactive: -7.1% |
| COCCCn1c(=N)c(C(=O)NCc2cccnc2)cc2c(=O)n3cccc(C)c3nc21 | inactive: -5.32% |
| CN1C(=O)Cc2cc(S(=O)(=O)CCC(=O)Nc3ccc(Cl)c(C(F)(F)F)c3)ccc21 | inactive: -5.31% |
| COc1ccc(C)cc1NC(=O)CCNC(=O)Cn1ccc2ccccc2c1=O | inactive: 26.3% |
| COc1ccc(NC(=O)c2oc3ccccc3c2NC(=O)Cc2coc3cc(C)ccc23)cc1 | inactive: -2.04% |
| COc1ccc2oc(-c3ccc(C)c(NC(=O)c4ccc5c(c4)OCCO5)c3)nc2c1 | inactive: 1.83% |

| Structure (SMILES) | activation |
| --- | --- |
| COc1ccc(-n2ncc(C(=O)Nc3ccc4c(c3)OCO4)c2C2CCN(C(=O)OC(C)(C)C)CC2)cc1 | inactive: -19.2% |
| Cc1ccc(NC(=O)Cn2cc(S(=O)(=O)Cc3cccc(Cl)c3)c3ccccc32)cc1C | inactive: -12.8% |
| COc1ccc(C2=C(C)C(=NCCCN3CCN(c4cc(Cl)ccc4C)CC3)NS2(=O)=O)cc1 | inactive: 24.3% |
| CCCNC(=O)COCc1cc(-c2ccc(F)cc2)on1 | inactive: -1.21% |
| O=C(CCC1N=C2c3ccccc3N=C(SCc3ccccc3F)N2C1=O)NCc1ccccc1 (stereo not drawn) | inactive: 38.7% |
| O=C(NCc1ccccc1Br)c1ccc2c(c1)nc1n2CCOC1 | inactive: -1.16% |
| Cn1c(-c2ccccc2)cnc1NCc1ccccc1O | inactive: -0.318% |
| COc1ccc(-c2cn3c(n2)sc2cc(C(=O)Nc4cccc(SC)c4)ccc23)cc1 | inactive: -4.43% |
| CCc1ccc(N(CC)C(=O)CCn2cnc3onc(-c4ccc(F)cc4)c3c2=O)cc1 | inactive: 4.55% |
| CCOC(=O)c1c(C)c(-c2ccccc2)n(CC(=O)Nc2ccc(OCC)cc2)c1C | inactive: -21.6% |
| O=C(Nc1ccc2nc(SCCOc3ccccc3)sc2c1)c1ccccc1F | inactive: 20.8% |
| Cc1ccc(CSC2=Nc3ccccc3C3=NC(CC(=O)NCc4cccs4)C(=O)N23)c(C)c1 (stereo not drawn) | inactive: -26.4% |
| CCCCNS(=O)(=O)c1ccc(N2CCCCS2(=O)=O)cc1 | inactive: 5.54% |
| Cc1ccc(Cl)cc1N1CCN(C(=O)C2CCN(S(=O)(=O)Cc3ccccc3)CC2)CC1 | inactive: 10.2% |
| COc1ccccc1-c1noc(-c2ccc(N3CCN(C)CC3)c([N+](=O)[O-])c2)n1 | inactive: 0% |
| Cc1ccc(-c2ccc(=O)n(CC(=O)NCCc3ccc(Cl)cc3)n2)cc1 | inactive: -16% |
| CCCOc1ccc(CNC(=O)c2ccc3c(c2)N(Cc2ccccc2)CCS3)cc1 | inactive: -14.9% |
| COC(=O)C(CCSC)NC(=O)Cn1ncc2c([nH]c3ccccc32)c1=O (stereo not drawn) | inactive: -5.36% |
| COc1ccc(NC(=O)c2c(NCc3cccs3)sc3c2CCCC3)c(OC)c1 | inactive: -27.5% |
| COc1cccc2c1cc1c(=O)n(CC(=O)N3CCN(c4cccc(Cl)c4)CC3)nc(C)n12 | inactive: -3.17% |
